This is one part of the list. Many values rest on one well or one pass, so single values are uncertain.
Test system: SkMel5
Assay: cell count relative to DMSO control; melanoma cells; higher = more viable cells
Conditions: library dose: low library concentration; 72 h
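Further: cell number obtained by counting DAPI-stained nuclei in high-throughput microscope images with image analysis software, screen run in 1,536-well plates.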

Question: Which cell count does the source give for `COc1ccc(C2=N[C@@H](c3ccc(Cl)cc3)[C@@H](c3ccc(Cl)cc3)N2C(=O)N2CCNC(=O)C2)c(OC(C)C)c1` [Nutlin-3] + c1cc(-c2cnn3cc(-c4ccc(OCCN5CCCCC5)cc4)cnc23)ccn1 [Dorsomorphin] (first compound 0.1 µM, partner dose 0.4 µM) here?
Answer: 88.3%

Question: Which cell count does the source give for `Cn1c(=O)n(-c2ccc(C(C)(C)C#N)cc2)c2c3cc(-c4cnc5ccccc5c4)ccc3ncc21` + COc1cc(N2CCC(N3CCN(C)CC3)CC2)ccc1Nc1ncc(Cl)c(Nc2ccccc2S(=O)(=O)C(C)C)n1 [NVP-TAE684] (first compound 0.004 µM, partner dose 0.08 µM) here?
Answer: 100%

Question: Which cell count does the source give for `COc1ccc(C2=N[C@@H](c3ccc(Cl)cc3)[C@@H](c3ccc(Cl)cc3)N2C(=O)N2CCNC(=O)C2)c(OC(C)C)c1` [Nutlin-3] + COc1cc2c(Oc3ccc4[nH]c(C)cc4c3F)ncnc2cc1OCCCN1CCCC1 [cediranib] (first compound 0.1 µM, partner dose 0.4 µM) here?
Answer: 106%

Question: For `CC(C)C[C@H](NC(=O)[C@H](Cc1ccccc1)NC(=O)c1cnccn1)B(O)O` [Bortezomib] + NC(=O)Nc1cc(-c2cccc(F)c2)sc1C(=O)N[C@H]1CCCNC1 [AZD7762] (first compound 0.001 µM, partner dose 0.02 µM), which cell count is on record?
Answer: 109%

Question: For `CC(C)C[C@H](NC(=O)[C@H](Cc1ccccc1)NC(=O)c1cnccn1)B(O)O` [Bortezomib] + O=C(O)c1ccc(-c2c[nH]c3ncc(-c4ccccc4)cc23)cc1C1CCCC1 [GSK650394] (first compound 0.001 µM, partner dose 0.16 µM), which cell count is on record?
Answer: 84.6%

Question: With `COc1ccc(C2=N[C@@H](c3ccc(Cl)cc3)[C@@H](c3ccc(Cl)cc3)N2C(=O)N2CCNC(=O)C2)c(OC(C)C)c1` [Nutlin-3] + O=C1NC(=O)/C(=C/c2ccc(-c3ccc(F)cc3O)o2)S1 [AS252424] (first compound 0.1 µM, partner dose 1 µM) as the compound, how does the cell count read?
Answer: 94.4%

Question: With `Cn1c(=O)n(-c2ccc(C(C)(C)C#N)cc2)c2c3cc(-c4cnc5ccccc5c4)ccc3ncc21` + NCC(=O)Nc1ccc(-n2nc(C(F)(F)F)cc2-c2ccc3c(ccc4ccccc43)c2)cc1 [OSU03012] (first compound 0.004 µM, partner dose 1 µM) as the compound, how does the cell count read?
Answer: 91.7%

Question: For `CC(C)C[C@H](NC(=O)[C@H](Cc1ccccc1)NC(=O)c1cnccn1)B(O)O` [Bortezomib] + O=C(Nc1ccccc1)c1cc([N+](=O)[O-])ccc1Cl [GW9662] (first compound 0.001 µM, partner dose 2 µM), which cell count is on record?
Answer: 92.1%

Question: Which cell count does the source give for `COc1ccc(C2=N[C@@H](c3ccc(Cl)cc3)[C@@H](c3ccc(Cl)cc3)N2C(=O)N2CCNC(=O)C2)c(OC(C)C)c1` [Nutlin-3] + Cn1cc(/C=C2\C(=O)Nc3cccnc32)c2ccccc21 [GW441756] (first compound 0.1 µM, partner dose 0.4 µM) here?
Answer: 81%

Question: Which cell count does the source give for `Cn1c(=O)n(-c2ccc(C(C)(C)C#N)cc2)c2c3cc(-c4cnc5ccccc5c4)ccc3ncc21` + OCCn1cc(-c2cnc3nnn(Cc4ccc5ncccc5c4)c3n2)cn1 [PF04217903] (first compound 0.004 µM, partner dose 1 µM) here?
Answer: 114%

Question: Which cell count does the source give for `Cc1cn(-c2cc(NC(=O)c3ccc(C)c(Nc4nccc(-c5cccnc5)n4)c3)cc(C(F)(F)F)c2)cn1` [nilotinib] + Oc1nc(-c2ccc(C(F)(F)F)cc2)nc2c1CSCC2 [XAV939] (first compound 0.2 µM, partner dose 2 µM) here?
Answer: 80.5%

Question: `COc1ccc(C2=N[C@@H](c3ccc(Cl)cc3)[C@@H](c3ccc(Cl)cc3)N2C(=O)N2CCNC(=O)C2)c(OC(C)C)c1` [Nutlin-3] + CO[C@@H]1[C@H](N(C)C(=O)c2ccccc2)C[C@H]2O[C@]1(C)n1c3ccccc3c3c4c(c5c6ccccc6n2c5c31)C(=O)NC4 [Midostaurin] (first compound 0.1 µM, partner dose 0.08 µM) was tested. Which cell count did it give?
Answer: 89.6%

Question: How did the cell count turn out when `COc1ccc(C2=N[C@@H](c3ccc(Cl)cc3)[C@@H](c3ccc(Cl)cc3)N2C(=O)N2CCNC(=O)C2)c(OC(C)C)c1` [Nutlin-3] + C[C@@H]1CCN(C(=O)CC#N)C[C@@H]1N(C)c1ncnc2[nH]ccc12 [CP690550] (first compound 0.1 µM, partner dose 1 µM) was run?
Answer: 88.1%
